# Reference: PubChem BioAssay AID485341 (National Center for Advancing Translational Sciences (NCATS), 2010)
# In all, about 330,000 compounds went through this assay and about 1,700 (0.52%) were called active. The inconclusive results got no clear call from the source; some entries with a clear call stand among them for comparison. The call rests on the fitted dose curve; in most records, active means well fitted inhibition curve with a large enough effect; inconclusive means small, poorly fitted or top-dose-only effect; inactive means no such curve, though single readings can be large or run the other way. Potencies of inconclusive entries are doubtful fits and often do not repeat.
# Biological target: Beta-lactamase (Escherichia coli (strain K12)) (UniProt P00811)
# Assay: qHTS Inhibitors of AmpC Beta-Lactamase (assay without detergent); further: nearly all actives have a fitted effect of over 20% in size;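 on activity change, negative = inhibition: plate controls were no compound for no effect and no enzyme for full effect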
# Settings: AmpC nitrocefin hydrolysis, absorbance 480 nm, 0.0001% Triton; activity change, negative = inhibition: at 57.1 µM (top of the series) unless noted
# How it was run: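 20 mM phosphate pH 7.0 + 0.01% (detergent screen) or 0.0001% Triton X-100; 5.3 nM AmpC reagent; cpd preinc 15 min RT; nitrocefin (800 uM stock) to start; A480 q20 s × 4 min; Activity was normalised to no-enzyme and no-compound control wells.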
# Potency means the concentration at half of the fitted maximal effect; tags describe the fitted curve by direction and shape.
# UniProt P00811, sequence (P00811 whole entry, looked up): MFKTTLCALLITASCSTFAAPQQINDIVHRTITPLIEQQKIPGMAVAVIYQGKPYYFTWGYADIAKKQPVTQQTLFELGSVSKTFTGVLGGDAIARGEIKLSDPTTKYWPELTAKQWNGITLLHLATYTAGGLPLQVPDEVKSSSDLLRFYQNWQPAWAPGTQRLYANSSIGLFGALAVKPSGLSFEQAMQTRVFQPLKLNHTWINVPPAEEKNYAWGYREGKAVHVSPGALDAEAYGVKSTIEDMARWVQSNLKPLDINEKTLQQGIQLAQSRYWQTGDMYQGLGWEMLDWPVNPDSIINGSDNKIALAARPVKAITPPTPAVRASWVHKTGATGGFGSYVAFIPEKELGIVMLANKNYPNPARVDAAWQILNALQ
SMILES,Potency,"activity change, negative = inhibition"
CCN(CC)CCn1cnc2c([nH]c3cccc(OC)c32)c1=O,"inconclusive: 6.31 µM [inhibitor, single point]",
COc1cc(/C=N/NC(=O)Nc2cccc3nsnc23)cc(OC)c1OC,"inconclusive: 0.141 µM [inhibitor, full curve, poor fit]",
CCOC(=O)c1cn[nH]c1NC(=S)Nc1ccc(Cl)cc1,,inactive: -40.3%
Cc1ccc(S(=O)(=O)CC(=O)c2ccc(C)c([N+](=O)[O-])c2)cc1,"inconclusive: 3.16 µM [inhibitor, partial curve, poor fit]",
CC(=O)N/C(=C\c1ccccc1)C(=O)OCC(=O)c1ccccc1,"inconclusive: 35.5 µM [inhibitor, single point]",
Cc1cccc(-c2cc3nc(C)cc(C)n3n2)c1,,inactive: 12.9%
COc1ccc(-c2nnc(SCC(=O)NCC3CCCO3)n2C)cc1 (stereo not given),,inactive: -12.7%
COc1ccc(C(=O)Nc2oc(-c3ccccc3)c(-c3ccccc3)c2C#N)cc1OC,"inconclusive: 3.98 µM [inhibitor, single point]",
COc1ccc(N2CC(NS(=O)(=O)c3ccc(F)cc3)CC2=O)cc1 (stereo not given),"inconclusive: 31.6 µM [inhibitor, single point]",
O=C(Nc1nc(-c2ccccc2)c(-c2ccccc2)s1)c1ccc(S(=O)(=O)N(CCCl)CCCl)cc1,"inconclusive: 5.01 µM [inhibitor, single point]",
COCCNP(=O)(c1ccccc1)c1nc2ccccc2s1 (stereo not given),,inactive: -6.27%
CCCCC(=O)Nc1cccc(-c2csc(-c3ccccc3)n2)c1,"inconclusive: 3.16 µM [inhibitor, partial curve]",
Cc1ccccc1OCC(=O)NNC(=O)c1ccc(-n2cncn2)c([N+](=O)[O-])c1,"inconclusive: 39.8 µM [inhibitor, single point]",
CCCCN1C(=O)c2ccc(C(=O)Nc3cccnc3)cc2C1=O,"inconclusive: 0.708 µM [inhibitor, partial curve, poor fit]",
NNC(=O)c1cn2ccccc2n1,,inactive: -8.27%
COc1cc2c(cc1NC(=O)CN1C(=O)NC3(CCc4ccccc43)C1=O)oc1ccccc12 (stereo not given),,inactive: 29.1%
N#CC1=C(N)OC2=C(CCC/C2=C/c2ccoc2)C1c1ccoc1 (stereo not given),active: 0.282 µM,
Cc1ccn2c(=O)nc(SCC(=O)OCc3ccccc3)nc2c1,"inconclusive: 35.5 µM [inhibitor, single point]",
Cc1ccc(C(=O)NC2CC(=O)N(c3ccc4c(c3)OCCO4)C2)cc1[N+](=O)[O-] (stereo not given),"inconclusive: 39.8 µM [inhibitor, single point]",
Cc1cccc(NC(=O)c2cccc(S(=O)(=O)N3CCCC3)c2)n1,"inconclusive: 39.8 µM [inhibitor, single point]",
